Test results published in publication PMC4336329 (PLoS ONE, 2015).
About 14,000 (4.5%) of roughly 310,000 compounds showed an effect of 50% or more. Effects have a minus sign here. Some of the results follow.

Molecular target: human ether-à-go-go-related gene (hERG) potassium channel (human, UniProt Q12809)
Experiment: primary screen, population patch clamp on CHO cells stably expressing hERG
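Also: peak tail current of the secondary pulse compared with the same well before compound.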

Sequence of human ether-à-go-go-related gene (hERG) potassium channel (Q12809 whole entry, looked up): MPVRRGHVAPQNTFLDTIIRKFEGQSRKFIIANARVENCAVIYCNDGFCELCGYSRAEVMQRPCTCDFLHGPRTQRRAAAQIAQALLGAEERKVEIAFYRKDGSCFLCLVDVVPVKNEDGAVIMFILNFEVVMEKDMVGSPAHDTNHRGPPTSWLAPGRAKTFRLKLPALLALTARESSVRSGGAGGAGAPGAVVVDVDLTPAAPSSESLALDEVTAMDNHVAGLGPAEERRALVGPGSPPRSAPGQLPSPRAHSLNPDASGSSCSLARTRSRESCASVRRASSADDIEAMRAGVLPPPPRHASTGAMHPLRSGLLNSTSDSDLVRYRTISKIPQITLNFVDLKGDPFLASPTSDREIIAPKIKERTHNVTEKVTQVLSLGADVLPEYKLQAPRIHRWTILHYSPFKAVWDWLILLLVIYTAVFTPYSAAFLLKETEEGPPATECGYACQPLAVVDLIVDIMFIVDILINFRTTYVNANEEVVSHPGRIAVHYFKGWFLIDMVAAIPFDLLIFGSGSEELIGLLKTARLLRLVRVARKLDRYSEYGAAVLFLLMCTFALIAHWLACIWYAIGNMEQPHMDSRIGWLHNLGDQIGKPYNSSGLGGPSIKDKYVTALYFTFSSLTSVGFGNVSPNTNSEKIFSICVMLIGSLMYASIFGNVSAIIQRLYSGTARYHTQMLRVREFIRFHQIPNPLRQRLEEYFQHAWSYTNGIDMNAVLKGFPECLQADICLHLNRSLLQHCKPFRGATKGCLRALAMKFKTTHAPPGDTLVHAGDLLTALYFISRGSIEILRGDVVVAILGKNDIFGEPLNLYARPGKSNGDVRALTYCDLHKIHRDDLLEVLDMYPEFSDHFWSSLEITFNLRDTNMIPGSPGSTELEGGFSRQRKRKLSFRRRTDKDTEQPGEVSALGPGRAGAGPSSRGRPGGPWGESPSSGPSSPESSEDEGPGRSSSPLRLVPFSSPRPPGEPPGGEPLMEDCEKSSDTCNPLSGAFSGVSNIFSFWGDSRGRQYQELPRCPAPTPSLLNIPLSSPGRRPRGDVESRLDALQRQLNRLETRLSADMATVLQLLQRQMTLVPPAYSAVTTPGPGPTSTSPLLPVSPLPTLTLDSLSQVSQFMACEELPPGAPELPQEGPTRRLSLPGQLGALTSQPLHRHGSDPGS

| SMILES | hERG current change (%, negative = inhibition) at 10uM |
| --- | --- |
| CCC(CC)C(=O)Nc1cccc(C(=O)NCCc2ccc(S(N)(=O)=O)cc2)c1 | 12.9% |
| Nc1c(C(=O)Nc2ccc3c(c2)OCCO3)nnn1Cc1cccc(Cl)c1 | -8.28% |
| COc1ccc(-c2nnc(SCC(=O)O)n2C)cc1OC | 19.1% |
| CCOc1ccc(C(=O)CC(NCc2cccs2)C(=O)O)cc1 (centres unmarked) | 6.86% |
| CCOC(=O)Cc1nnc2c(Nc3ccc(C)cc3)nc3nonc3n12 | -5.67% |
| O=C(COC(=O)COc1ccccc1)Nc1ccc(Cl)cn1 | 7.56% |
| O=C(COC(=O)CNC(=O)c1ccccc1)Nc1nnc(-c2ccccc2)o1 | -0.688% |
| O=C(COc1c(F)c(F)cc(F)c1F)NC(=O)NC1CCCC1 | -0.615% |
| COCCOC(=O)c1c(NC(=O)CN2CCOCC2)sc(C(N)=O)c1C | -1.58% |
| O=C(c1cccc(-n2cccc2)c1)N1CCN(S(=O)(=O)c2ccc(F)cc2)CC1 | -34.7% |
| Cc1cccc2cc(C#N)c(SCC(=O)NNC(=O)Cc3ccccc3)nc12 | -8.94% |
| CCC(C(=O)O)N1C(=O)/C(=C/c2cccn2C)SC1=S (centres unmarked) | 12.9% |
| CC(=O)Nc1ccc(NS(=O)(=O)c2ccc3c(c2)oc(=O)n3C)cc1 | 20.2% |
| CCN(CC(=O)Nc1c(F)cccc1F)C(=O)C1CCN(C(=O)c2ccc(F)cc2)CC1 | 4.59% |
| O=[N+]([O-])/C(N=Nc1ccccc1)=N\Nc1ccccc1 | 29.9% |
| Cc1cc(C(=O)N2CCCC(Nc3ccc(C(C)C)cc3)C2)nn1C (centres unmarked) | -1.89% |
| CC(=O)Nc1ncc(Cc2ccc(Cl)cc2Cl)s1 | 11.1% |
| CC(=O)c1ccc(NC(=O)CSc2ccc3nnc(-c4cccnc4)n3n2)cc1 | -28.8% |
| Cl.Fc1ccccc1COc1ccc(Br)cc1CNCC1CCCO1 (centres unmarked) | -68.3% |
| Cc1ccc(-n2c(O)c(/C=N/NC(=O)c3ccncc3)c(=O)[nH]c2=O)cc1 | 1.07% |
| COc1ccc(CCN2CC(C(=O)O)CC2=O)cc1 (centres unmarked) | -5.27% |
| CCN(CC)c1ccc(NC(=O)COc2ccccc2C#N)cc1S(=O)(=O)Nc1ccc(OC)cc1 | 13% |

| SMILES | hERG current change (%, negative = inhibition) at 10uM |
| --- | --- |
| CC(=O)N1CCN(c2ccc(NC(=O)c3ccc([N+](=O)[O-])o3)cc2Cl)CC1 | -50% |
| Cc1[nH]c2ccccc2c1/C=C/c1nc2ccccc2c(=O)n1-c1cccc([N+](=O)[O-])c1 | 10.3% |
| CCn1c(COc2ccccc2C)nnc1SCC(=O)N1CCCCC1 | 2% |
| Cc1[nH]c2ccccc2c1CCNCc1ccco1.Cl | 12.1% |
| CCn1c(=O)cc(SCC(=O)N2CCN(C)CC2)c2ccccc21 | 6.22% |
| COc1cc(C2C(C(=O)OC(C)C)=C(C)Nc3ncnn32)cc(OC)c1OC (centres unmarked) | -31.8% |
| COc1ccc(Cl)cc1C(=O)NNC(=S)NC1CCCC1 | 6.8% |
| CNc1ccc(/C=C/C(=O)c2ccc(C)cc2)cc1[N+](=O)[O-] | -6.99% |
| CCOC(=O)C1CCN(C(=O)Cn2nc(C)n3nc(-c4ccc(CC)cc4)cc3c2=O)CC1 | 5.33% |
| CC1CCN(C(=O)C2CCN(S(=O)(=O)c3ccc4c(c3)CC(C)N4C(=O)C3CC3)CC2)CC1 (centres unmarked) | -8.47% |
| O=[N+]([O-])c1cccc(-n2cccc2/C=N/Nc2nc(N3CCCCC3)nc(N3CCCCC3)n2)c1 | 14.6% |
| CC1CN(c2oc(-c3cccs3)nc2C#N)CC(C)O1 (centres unmarked) | -21.5% |
| Brc1ccc(-c2cnc3n2CCCC3)cc1 | -34.2% |
| Cc1cc(Br)ccc1NC(=O)c1sc2ncn(CC(=O)N3CCN(c4ccccn4)CC3)c(=O)c2c1C | -4.32% |
| Cc1cc(OCC(=O)NCc2cccnc2)c2c3c(c(=O)oc2c1)CCCC3 | -40.1% |
| COc1ccc(C)cc1NC(=O)c1ccc(-c2ccc(C(C)=O)cc2)o1 | 2.67% |
| Cc1ccc(S(=O)(=O)N2CCCCC2)cc1C(=O)OCC(=O)NC(=O)NC12CC3CC(CC(C3)C1)C2 | 8.53% |
| COCCCN(C(=S)Nc1c(C)cc(C)cc1C)C(C)c1ccncc1 (centres unmarked) | -18.4% |
| COC(=O)c1[nH]c2cc(OC)ccc2c1NC(=O)CCN1CCN(c2cccc(C)c2C)CC1 | -16.4% |
| COc1cccc(OC)c1OCCCNC1CCCC1.O=C(O)C(=O)O | -7.84% |
| COc1cccc(C2(O)CCN(CC(=O)NCC3CC3)CC2)c1 | -4.37% |
| O=c1c(=O)n2c(nn1Cc1ccc(F)cc1)sc1ccccc12 | 13% |

| SMILES | hERG current change (%, negative = inhibition) at 10uM |
| --- | --- |
| CN(C)c1ccc(P(=O)(OCc2ccccc2)C(O)c2ccncc2)cc1 (centres unmarked) | -9.12% |
| O=c1c2c([nH]c3ccccc13)CCC2 | 18.3% |
| COc1ccc(C(=O)NCCn2cc(SCC(=O)Nc3cc(C)on3)c3ccccc32)cc1OC | -12.3% |
| O=C(Cc1c(Cl)cccc1Cl)OCc1ccccn1 | -0.436% |
| Cc1ccc(C(=O)NCC2CCCO2)cc1S(=O)(=O)N1CCCCC1 (centres unmarked) | -10% |
| COc1ccc(S(=O)(=O)Nc2cc(SCC(=O)O)c(O)c3ccccc23)cc1 | 12.4% |
| O=C(CSc1nc2ccc(Cl)cc2[nH]1)Nc1ccc2[nH]c(=O)[nH]c2c1 | 16.1% |
| CCOc1ncccc1C(=O)NC(C)CCc1ccccc1 (centres unmarked) | -6.92% |
| CCc1[nH]c(C(=O)O)c(C)c1C(=O)OC | 4.54% |
| O=C(CC(c1ccco1)S(=O)(=O)c1ccccc1)c1ccc(F)cc1 (centres unmarked) | 1.66% |
| C=CCSc1nc2ccsc2c(=O)n1-c1cccnc1 | -8.97% |
| NC(=O)CC(NC(=O)Cc1ccc(Br)cc1)c1ccc(NCC2CC2)c([N+](=O)[O-])c1 (centres unmarked) | -16.3% |
| CCCCC(=O)NC1(C(F)(F)F)C(=O)Nc2c1c(=O)n(C)c(=O)n2C (centres unmarked) | -4.15% |
| O=C(COc1ccc([N+](=O)[O-])cc1)NCc1ccccc1 | -38.9% |
| CC1(C)Cc2c(cnn2-c2cccc(F)c2)C(NC(=O)c2cc[n+]([O-])cc2)C1 (centres unmarked) | -37.3% |
| COc1cccc(N2CCN(C(=S)Nc3cccc(C)c3)CC2)c1 | 1.42% |
| COc1ccc(NC(=O)CN(C)C(=O)CN2C(=O)NC3(CCCCC3)C2=O)cc1 | 3.29% |
| O=C1CC(c2cccs2)c2ccc3ccccc3c2N1 (centres unmarked) | 14.6% |
| CC[C@H](C)/C=C(C)/C=C/C1=CC2=C(Cl)C(=O)[C@@](C)(OC(C)=O)C(=O)C2=CO1 | 11.5% |
| Cc1ccc(N2CCN(C3=NC(=O)/C(=C\c4cccs4)S3)CC2)cc1 | -22.7% |
| O=C1NCCN(Cc2c(F)cccc2Cl)C1CC(=O)N1CCCCO1 (centres unmarked) | 24.1% |
| O=C(c1ccc(NS(=O)(=O)c2ccccc2)cc1)N1CCCCCC1 | -11.9% |

| SMILES | hERG current change (%, negative = inhibition) at 10uM |
| --- | --- |
| O=C(O)CC(C(=O)Nc1ccc(Cl)cc1Cl)C1CCCO1 (centres unmarked) | 20.2% |
| CC(=O)c1cccc(NC(=O)CN(C)S(=O)(=O)c2ccccc2)c1 | -11.5% |
| COC(=O)c1ccsc1NC(=O)CN1C(=O)CCC1=O | 2.02% |
| O=C(CNC(=O)c1ccc(Cl)cc1)OCC(=O)c1ccccc1 | -9.01% |
| N=C(N)N1CCc2ccccc2C1.O=S(=O)(O)O | -1.74% |
| COc1ccc(OC)c(S(=O)(=O)N2CCC3(CC2)CC(=O)c2ccccc2O3)c1 | -47.1% |
| Cc1cc(CN(C)C(=O)c2ccc3nc(Cc4ccccc4F)oc3c2)on1 | -5.71% |
| Cc1ccccc1Nc1cccc2nonc12 | 5.69% |
| Cc1ccc(-n2nnnc2SC(C(=O)c2c[nH]c3ccccc23)c2ccccc2)cc1 (centres unmarked) | 6.56% |
| CSc1ccc(CN(C)C(=O)CNC(=O)CNS(=O)(=O)c2ccc(C)c(C)c2)cc1 | -24.1% |
| C/C=C/c1ccc(OCCOc2ccc(C=O)cc2OC)c(OC)c1 | 16.5% |
| COc1ccc(-n2nnc3c(SCC(=O)Nc4ccc5c(c4)OCCO5)ncnc32)cc1 | 0.643% |
| OC1(c2cccs2)CN(c2ccc(Cl)cc2)C2=[N+]1CCCS2.[Br-] (centres unmarked) | -73.6% |
| N#C/C(=C/c1ccc(Br)o1)C(N)=O | -0.529% |
| Cc1c(NC(=O)CN2C(=O)c3ccc([N+](=O)[O-])cc3C2=O)c(=O)n(-c2ccccc2)n1C | 8.89% |
| O=C(O)CCCCCn1c(O)c(C=C2N=c3ccccc3=N2)sc1=S | 22.3% |
| Cc1ccc(-n2c(SCC(=O)O)nc3sc4c(c3c2=O)CCCC4)cc1 | 15.1% |
| O=C(CSc1nc2[nH]ncc2c(=O)[nH]1)Nc1ccccc1C(F)(F)F | 3.48% |
| Cc1cccc(C)c1OCC(=O)N(Cc1ccc(Cl)cc1)C1CCS(=O)(=O)C1 (centres unmarked) | -36.1% |
| Cc1ccc(Oc2cc([N+](=O)[O-])cc3c2C(=O)Nc2ccccc2O3)cc1 | 2.8% |
